Reference: PubChem BioAssay AID488969 (Vanderbilt High Throughput Screening Facility, 2010)
Over roughly 110,000 compounds, “z-score” has its median near -0.1; the highest 2% begin near 2. The list shows a part of the results. Activity calls are given as the source filed them.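 Rule for the calls: active = z-score in the third read window above 3 or below -3; inactive = the rest.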

The molecules below were run against Metabotropic glutamate receptor 8 (Rattus norvegicus) (UniProt P70579) (assay: mGluR8 Gi/Go-coupled signaling modulation – cell-based, rat, thallium flux, HTS, primary screen (AID 488969)). Conditions: HEK293 rat mGluR8, GIRK (G protein-gated inwardly rectifying potassium channel) thallium flux, FluoZin2; at 10 µM; stronger effect = higher value; submaximal glutamate (EC20) added with thallium.
UniProt P70579, sequence (P70579 whole entry, looked up): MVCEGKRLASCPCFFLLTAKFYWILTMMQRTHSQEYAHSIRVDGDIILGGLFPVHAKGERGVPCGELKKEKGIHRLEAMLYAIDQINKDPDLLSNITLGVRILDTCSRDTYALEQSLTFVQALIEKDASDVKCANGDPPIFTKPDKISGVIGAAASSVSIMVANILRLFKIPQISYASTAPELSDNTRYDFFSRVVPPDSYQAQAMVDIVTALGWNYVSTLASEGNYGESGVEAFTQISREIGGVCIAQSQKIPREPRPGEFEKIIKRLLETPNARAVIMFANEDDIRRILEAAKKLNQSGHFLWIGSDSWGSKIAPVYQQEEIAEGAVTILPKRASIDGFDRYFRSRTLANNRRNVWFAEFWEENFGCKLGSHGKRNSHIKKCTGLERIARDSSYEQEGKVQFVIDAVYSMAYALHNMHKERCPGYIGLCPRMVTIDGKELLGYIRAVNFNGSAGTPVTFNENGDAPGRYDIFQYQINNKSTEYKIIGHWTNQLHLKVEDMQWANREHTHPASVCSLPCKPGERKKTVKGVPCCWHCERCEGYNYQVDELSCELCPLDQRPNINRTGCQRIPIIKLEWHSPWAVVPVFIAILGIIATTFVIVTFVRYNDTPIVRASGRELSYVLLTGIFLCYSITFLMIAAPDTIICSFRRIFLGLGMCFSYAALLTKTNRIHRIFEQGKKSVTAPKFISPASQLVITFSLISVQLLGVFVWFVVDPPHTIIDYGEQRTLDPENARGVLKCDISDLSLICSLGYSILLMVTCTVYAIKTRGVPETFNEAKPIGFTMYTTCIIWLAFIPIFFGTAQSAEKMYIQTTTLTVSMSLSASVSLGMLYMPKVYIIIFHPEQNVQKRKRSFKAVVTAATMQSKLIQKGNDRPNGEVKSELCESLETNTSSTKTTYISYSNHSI

Row | SMILES | z-score
1 | CCOC(=O)c1sc2nc(SC)nc(-c3ccccc3)c2c1N | -0.0533
2 | Cc1ccc(-c2nnc(SCC#N)n2N)cc1 | 0.0429
3 | CC(C)n1c(-c2cccs2)nc2ccccc21 | -0.753
4 | CN(CC(=O)O/N=C(\N)c1ccccn1)S(=O)(=O)c1ccc(Br)cc1 | -0.661
5 | O=C(OCc1cn(-c2ccc(Cl)cc2)nn1)c1ccccc1 | 0.00665
6 | Cc1nn(-c2ccccc2)c(C)c1/C=N/O | -0.0883
7 | Cn1c(SCCOc2ccc(Cl)cc2)nnc1-c1ccncc1 | -0.889
8 | CC(C)OCCCNS(=O)(=O)c1ccc2c(c1)OCCO2 | 0.944
9 | O=C(CN1CCN(S(=O)(=O)c2ccc(Br)cc2)CC1)N/N=C/c1ccc(Cl)c([N+](=O)[O-])c1 | -0.167
10 | CC(/C=N/NC(=O)c1n[nH]c2c1CCC2)=C\c1ccccc1 | -0.181
11 | COC(=O)CCC(=O)Nc1cccc(Cl)c1 | -0.0969
12 | CCOC(=O)c1nc2cc3n(c(C)c-2c1C)C(C)C(CC)=C3C (stereo not given) | 2.31
13 | CCCCOc1ccc(C(=O)C(CN2CCOCC2)c2ccccc2)cc1 (stereo not given) | -0.0119
14 | CCOC(=O)CC1C(=O)NCCN1C(=O)NC1CCCCC1 (stereo not given) | -0.168
15 | CC(C)(C)C1CCC(=NNC(=O)c2ccccc2-n2cccc2)CC1 (stereo not given) | -0.0903
16 | COc1cccc2c1OCC/C2=N\NC(=O)COc1ccccc1C | -0.235
17 | Cc1cc(C)n2nc(C(=O)N3CCOCC3)nc2n1 | 1.43
18 | CN(C)c1nc(N)nc(Cn2ccnc2)n1 | 0.206
19 | COCCN(C(=O)Cc1cccs1)c1nnc(-c2ccncc2)s1 | -0.0562
20 | Cc1ccc(-n2nc(C(=O)N/N=C/c3cccc(C(F)(F)F)c3)c3ccccc3c2=O)cc1C | 0.099
21 | COc1ccc(OC)c(S(=O)(=O)N2CCC(C(=O)NCCc3ccc(OC)c(OC)c3)CC2)c1 | -0.718
22 | O=C(C1CCC(CNS(=O)(=O)c2cccc3cccnc23)CC1)N1CCCC1 (stereo not given) | -0.035
23 | O=C(Nc1sc2c(c1C(=O)NCc1ccco1)CCCC2)c1ccc2c(c1)OCO2 | -0.422
24 | CCc1cc(C(=O)OC)c(NC(=O)CC2Nc3cc(C)c(C)cc3NC2=O)s1 (stereo not given) | -0.628

Row | SMILES | z-score
25 | Cc1cn2c(nc1=O)OC1C(O)C(COC(=O)c3ccccc3)OC12 (stereo not given) | 0.0313
26 | CC1=CC(C)(C)N(C)C(=O)N1c1ccc(Cl)cc1 | -0.475
27 | O=C(CSc1nnnn1-c1cccc2c1CCCC2)NC1CCCC1 | active: 5.15
28 | CCOc1ccc(N2C(=O)C(Cl)=C(Nc3ccccc3O)C2=O)cc1 | -0.473
29 | Cc1ccc(C(=O)c2c(NC(=O)c3cccnc3)sc3c2CCCC3)cc1 | -0.259
30 | CCCCOC(=O)N/N=C/C=C/c1ccccc1 | -0.446
31 | CC(=O)c1cc(-c2nc3ccccc3n2C)n(C)c1 | -0.0365
32 | C=C1CC2C3CC[C@@]4(OCOC45COCO5)[C@@]3(C)C(O)CC2[C@@]2(C)CCC(=O)C=C12 (stereo not given in full) | 0.105
33 | Cc1ccc2[nH]c(O)c(N=NC(=O)CCc3ccccc3)c2c1Br | -0.296
34 | Cc1ccc(S(=O)(=O)N2CCN(C(=O)CSc3nnnn3C)C2)cc1 | -0.0731
35 | COC(=O)c1cc2ccsc2n1CC(=O)Nc1cc(C)cc(C)c1 | 0.652
36 | COc1ccccc1Oc1c(C)oc2cc(OC(=O)c3ccco3)ccc2c1=O | -0.622
37 | COc1ccc2c(c1)C=C(C(=O)NCc1ccc(Cl)cc1)CO2 | -0.401
38 | CCOC(=O)c1c(CN2CCN(Cc3ccccc3)CC2)n(C)c2cc(Br)c(OC)cc12 | 0.132
39 | CC1CCc2c(sc(NC(=O)CSc3nc4c(c(C(F)(F)F)n3)CCc3ccccc3-4)c2C(N)=O)C1 (stereo not given) | -0.229
40 | COc1ccc(OC)c(NC(=O)CSc2ncccn2)c1 | -0.134
41 | Cc1ccc(OCC(=O)Nc2ccc3c(c2)OCO3)c([N+](=O)[O-])n1 | 0.0431
42 | CSc1nsc(SC)c1C(=O)N1CCN(S(=O)(=O)c2ccc(C)cc2)C1C(C)C (stereo not given) | -0.101
43 | CCOC(=O)c1c(-c2ccccc2)n(C)c2ccc(O)cc12 | -0.22
44 | Cc1cc(=O)oc2ccc(OCC(=O)NCc3ccco3)cc12 | 0.0447
45 | O=C(Cc1ccccc1)N1CCC(C(=O)N2CCN(c3ccc(F)cc3)CC2)CC1 | -0.407
46 | CCCn1c(O)c2ccc(C(=O)N=NC(=O)c3cccnc3)cc2c1O | -0.213
47 | CCCOC(=O)c1ccc(OCC(O)CN2CCN(C(=O)c3ccccc3)CC2)cc1 (stereo not given) | -0.174
48 | CC(n1cnnn1)C12CC3CC(CC(C3)C1)C2 (stereo not given) | -0.109

Row | SMILES | z-score
49 | O=C(Nc1cccc(S(=O)(=O)N2CCOCC2)c1)[C@@H]1CCCN1S(=O)(=O)c1ccc(Cl)cc1 | -0.283
50 | CN(C)c1ccc(/C=N/NC(=S)NCc2ccco2)cc1 | 0.0065
51 | O=C(COC(=O)C1CCN(S(=O)(=O)c2cccs2)CC1)c1ccc2c(c1)OCCO2 | -0.539
52 | S=C(NCCc1ccccc1)NC1CC1 | -0.0025
53 | Cc1cccc(N2CSC3=C(C#N)C(c4ccc(C)o4)CC(=O)N3C2)c1 (stereo not given) | -0.375
54 | Cc1cccc(N2CCN(C(=O)c3cccc(S(=O)(=O)N4CCc5ccccc5C4)c3)CC2C)c1 (stereo not given) | -0.537
55 | CCOC(=O)c1oc2nc(C(C)C)c3c(c2c1N)CCC3 | 0.0843
56 | O=C(Nc1ncn[nH]1)c1ccc(Cl)c(S(=O)(=O)N2CCCCCC2)c1 | -0.368
57 | COc1ccccc1CC(=O)N(CCC#N)CCC#N | -0.512
58 | CCOC(=O)c1c(C)n(C)c2cc(Br)c(C)cc12 | 0.0367
59 | O=S(=O)(NCCCCCNS(=O)(=O)c1ccccc1)c1ccccc1 | 0.239
60 | Cc1nc(SCC(=O)NC(=O)NCc2ccccc2)nc(C)c1C | 0.372
61 | NC(=O)SCC(=O)Nc1ccc(Cl)cc1 | active: 5.18
62 | Cc1ccc(NC(=O)Cn2c(=O)oc3cc(S(=O)(=O)N4CCC(C)CC4)ccc32)cc1C | -0.417
63 | CCCCN1CC2([N+](=O)[O-])C=CC(=O)C([N+](=O)[O-])(C1)C2CC(=O)c1ccccc1 (stereo not given) | 0.124
64 | COc1ccc(OC)c(/C=N/NC(=O)c2[nH]nc3c2CCc2ccccc2-3)c1 | -0.0907
65 | COc1ccc(C(=O)NC(=S)NNC(=O)c2cnccn2)cc1OC | -0.43
66 | c1nc(N2CCOCC2)c2c3c(sc2n1)CCCC3 | -0.441
67 | COc1cc(C(O)P(=O)(OC(C)C)OC(C)C)cc(OC)c1OC (stereo not given) | -0.0504
68 | c1ccc(-c2ccc(-c3csnn3)cc2)cc1 | 0.0432
69 | CCC(SC1=NCCS1)C(=O)Nc1ccc(S(N)(=O)=O)cc1 (stereo not given) | -0.397
70 | O=C(NC(Cc1ccc2c(c1)OCO2)C(=O)N1CCCC1C(=O)O)c1ccccc1 (stereo not given) | -0.0785
